# Test results from publication PMC4336329 (PLoS ONE, 2015).
# The whole screen tested about 310,000 compounds, of which about 2,200 (0.71%) showed an effect of 50% or more. The effect is printed as a negative number. This is one part of the list.
# Target: human ether-à-go-go-related gene (hERG) potassium channel (human, UniProt Q12809)
# Experiment: primary screen, population patch clamp on CHO cells stably expressing hERG
# Sequence of human ether-à-go-go-related gene (hERG) potassium channel (Q12809 whole entry, looked up): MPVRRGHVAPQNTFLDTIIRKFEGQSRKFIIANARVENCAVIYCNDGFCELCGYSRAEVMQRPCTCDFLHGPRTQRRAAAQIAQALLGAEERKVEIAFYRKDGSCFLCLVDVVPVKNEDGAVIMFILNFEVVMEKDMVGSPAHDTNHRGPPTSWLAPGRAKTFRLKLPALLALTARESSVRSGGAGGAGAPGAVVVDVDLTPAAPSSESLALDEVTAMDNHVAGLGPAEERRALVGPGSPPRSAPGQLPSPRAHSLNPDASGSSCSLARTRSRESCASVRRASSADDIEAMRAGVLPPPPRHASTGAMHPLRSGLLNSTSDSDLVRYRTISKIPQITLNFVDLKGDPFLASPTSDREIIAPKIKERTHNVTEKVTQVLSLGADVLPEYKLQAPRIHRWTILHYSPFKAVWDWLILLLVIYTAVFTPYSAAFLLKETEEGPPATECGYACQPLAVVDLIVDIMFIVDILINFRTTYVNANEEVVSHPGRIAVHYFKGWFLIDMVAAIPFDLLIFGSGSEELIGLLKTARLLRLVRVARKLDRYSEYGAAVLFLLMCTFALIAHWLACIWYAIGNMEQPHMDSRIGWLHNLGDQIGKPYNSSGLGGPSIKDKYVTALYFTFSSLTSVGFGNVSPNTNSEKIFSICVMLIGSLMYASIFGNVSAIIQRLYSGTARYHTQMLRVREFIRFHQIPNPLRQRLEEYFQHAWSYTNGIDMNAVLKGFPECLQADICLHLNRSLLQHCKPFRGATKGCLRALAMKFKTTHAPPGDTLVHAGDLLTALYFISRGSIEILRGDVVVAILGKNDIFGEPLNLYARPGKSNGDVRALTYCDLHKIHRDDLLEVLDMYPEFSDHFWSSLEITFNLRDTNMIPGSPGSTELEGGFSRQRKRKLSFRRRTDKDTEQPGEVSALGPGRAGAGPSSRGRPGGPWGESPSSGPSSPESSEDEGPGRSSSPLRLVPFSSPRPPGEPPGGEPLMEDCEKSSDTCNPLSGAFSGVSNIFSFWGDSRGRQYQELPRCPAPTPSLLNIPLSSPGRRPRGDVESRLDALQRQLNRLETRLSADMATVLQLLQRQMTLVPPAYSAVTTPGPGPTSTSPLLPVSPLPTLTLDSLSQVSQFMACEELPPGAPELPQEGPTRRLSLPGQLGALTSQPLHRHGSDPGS
row,SMILES,"hERG current change (%, negative = inhibition) at 1uM"
1,CCOc1cc(N2CCOCC2)c(OCC)cc1NC(=O)c1c(-c2ccccc2)noc1C,6.09%
2,CCn1c(CC(=O)Nc2ccccc2)nnc1SCc1nc2ccccc2c(=O)[nH]1,-2.32%
3,CC(Sc1c[nH]c2ccccc12)C(=O)O (stereo not drawn),5.58%
4,CCOc1cc(/C=C\c2nc(O)c([N+](=O)[O-])c(=O)[nH]2)ccc1OC(C)CC (stereo not drawn),7.52%
5,COc1ccc(CC(=O)Nc2nn(C)c3nc4c(C)cccc4cc23)cc1,3.6%
6,O=C(Nc1ccc(F)cc1)Nc1csc2ccccc12,12.5%
7,CCOc1ccc(OCC)c(NC(=O)CSc2nc3ccccc3c(=O)n2C)c1,9.9%
8,COc1ccc(NC(=O)CN2CCN(CC(=O)Nc3ccc4c(c3)OCO4)CC2)cc1,-85.9%
9,OC1(Cc2cc(-c3ccccc3)no2)CCN(CCCc2ccccc2)CC1,-55.5%
10,COCCCNC(=O)C1CCN(c2ncccn2)CC1,6.35%
11,CCCCOC(=O)Nc1cc(C(=O)OC)ccc1C(=O)OC,-3.25%
12,CC(C)c1[nH]nc2c1C(Cc1ccccc1)C(C#N)=C(N)O2 (stereo not drawn),9.6%
13,CN(C)S(=O)(=O)c1ccc2c(c1)C(=NNC(N)=O)c1cc(S(=O)(=O)N(C)C)ccc1-2,12.2%
14,Cc1nc(-c2ccc(NS(C)(=O)=O)cc2)cs1,1.45%
15,CCNC(=O)COC(=O)C1CCN(S(=O)(=O)c2ccc3c(c2)OCCO3)CC1,11%
16,NS(=O)(=O)c1cc([N+](=O)[O-])ccc1NCc1cccnc1,4.3%
17,CSCCC(NC(=O)c1cccc(C)c1)C(=O)O (stereo not drawn),21.2%
18,O=C(Cc1cccs1)N(c1ccccc1)C1C=CS(=O)(=O)C1 (stereo not drawn),13.2%
19,Cc1ccccc1OCC(=O)N/N=C/c1ccc([N+](=O)[O-])o1,-0.362%

row,SMILES,"hERG current change (%, negative = inhibition) at 1uM"
1,Cc1cc(NC(=O)CCN2CCC(C)CC2)ccc1Br.Cl,-24.5%
2,Nc1nc(NCCO)nc(NCc2ccccc2)c1[N+](=O)[O-],12.1%
3,COc1ccc(C(=O)N=C2SC3CS(=O)(=O)CC3N2c2ccc(C(C)=O)cc2)cc1 (stereo not drawn),4.54%
4,Br.CN=c1nc(-c2ccccc2)n(-c2ccccc2)s1,6.86%
5,O=C1NC(C(=O)O)=CC(c2ccc([N+](=O)[O-])cc2)N1 (stereo not drawn),10.2%
6,CC(C(=O)c1c[nH]c2ccccc12)N1CCN(C(=O)c2ccco2)CC1 (stereo not drawn),6.03%
7,O=C(/C=C/c1ccco1)NC(=S)Nc1cc(C(F)(F)F)ccc1N1CCOCC1,12.3%
8,COc1ccc(NC(=O)COC(=O)C2CCN(S(=O)(=O)c3ccccc3)CC2)cc1Cl,-4.43%
9,CCCCc1c(O)cc(C)[nH]c1=O,15.1%
10,Cc1ccc(S(=O)(=O)CC(=O)N(CCCN2CCOCC2)c2nc3c(F)cccc3s2)cc1.Cl,5.91%
11,O=C(CCNC(=O)c1ccco1)Nc1ccccc1N1CCOCC1,13.5%
12,CCOC(=O)c1ccc(-c2n[nH]c(=O)c3ccccc23)cc1,7.02%
13,CSc1nc(-c2ccccc2)nc2c1COC(C)(C)C2,10.1%
14,CC1(C)C/C(=N\O)c2cc3c(nc2C1)CCCC3,8.13%
15,CCCCN(CCCC)CC(O)CN1C(=O)NC(C)(C)C1=O (stereo not drawn),1.38%
16,CCOC(=O)[C@@H]1[C@H]2COc3cc(OC)ccc3[C@@H]2N2C(=O)N(c3ccc(C)cc3)C(=O)[C@@]12C,3.26%
17,COC(=O)CCSCC(=O)Nc1ccc(S(=O)(=O)N2CCOCC2)cc1OC,9.95%
18,CC(=O)/C(C#N)=C1\NC(=O)C(Cc2ccccc2)S1 (stereo not drawn),18.9%
19,O=C(c1ccc(NS(=O)(=O)c2cccc([N+](=O)[O-])c2)cc1)N1CCCCCC1,-1.26%

row,SMILES,"hERG current change (%, negative = inhibition) at 1uM"
1,Cc1ccc(S(=O)(=O)N2CCN(C(=O)c3ccc(-n4cncn4)c([N+](=O)[O-])c3)CC2)cc1,-19.5%
2,COc1ccccc1CNC(=O)c1sccc1C,-0.149%
3,O=C1/C(=C/c2ccc(C(=O)O)cc2)CCC/C1=C\c1ccc(C(=O)O)cc1,1.5%
4,O=C(Nc1ccc(Cl)cc1)N1CCc2ccccc2C1,6.72%
5,CCN(CC)c1ccc2c(C)cc(=O)oc2c1,10.9%
6,O=C(COC(=O)c1ccccc1Br)NCCN1C(=O)CSC1=O,3.72%
7,COc1ccc(CCNC(=O)CC(c2ccccc2)c2cc(C)ccc2O)cc1OC (stereo not drawn),15.5%
8,CCOC(=O)c1c(C)nc2ccccc2c1-c1ccccc1.Cl,-2.74%
9,COc1ccc2oc(=O)c(-c3nc4ccccc4o3)cc2c1,8.38%
10,Cl.Fc1ccccc1CCNCc1cccc(Cl)c1Cl,12.8%
11,S=C(NCCc1ccccn1)Nc1ccccc1Cl,17%
12,CN1Cc2sc(N)c(C#N)c2CC1(C)C.Cl,0.571%
13,O=C(NCc1ccco1)/C(=C\c1cccs1)NC(=O)c1ccco1,-4.12%
14,COc1ccccc1OCC(=O)NCCS(=O)(=O)N1CCN(c2ccc(F)cc2)CC1,-3.49%
15,Cc1nc(C(=O)Nc2cc(Cl)ccc2Cl)nn1-c1cc(OC(C)C)c(Cl)cc1Cl,-0.146%
16,CC(C)Cc1nnc(NC(=O)C2CCN(C(=O)c3ccc(Cl)cc3)CC2)s1,-4.92%
17,COCc1cc(C)nc(N2CCc3ccccc32)c1C#N,7.44%
18,O=C1N(Cc2cccnc2)C[C@@H]2C[C@@H](c3ccc4nonc4c3)N3CCC[C@@]123,-18.2%
19,Cc1ccc(C(=O)Nc2sc3c(c2C(=O)O)CCCCC3)o1,1.25%
